Data as given in paper PMC8161014.
No constants are given. Whether binding was seen depends on the method and setting. In cells and extracts the contact can be indirect. Some binding calls cover weakened binding; strength is not graded here. For some of these results: Where a sequence is shown, tags or fusion partners need not be part of it. Values belong to the molecule of their own block, whether it stands above or below them.

Protein sequences, listed by entry. Tags and fused reporters are not part of them. Lines headed by an entry give the natural chain unless they say otherwise; changes in a name come on top. Chains listed by the source or under a name are the forms on record and can include a tag or linker. Residues count along the entry.
StrepII-FLAG-tagged DCAF12 (∆1–38) (Q5T6F0, residues 39-453): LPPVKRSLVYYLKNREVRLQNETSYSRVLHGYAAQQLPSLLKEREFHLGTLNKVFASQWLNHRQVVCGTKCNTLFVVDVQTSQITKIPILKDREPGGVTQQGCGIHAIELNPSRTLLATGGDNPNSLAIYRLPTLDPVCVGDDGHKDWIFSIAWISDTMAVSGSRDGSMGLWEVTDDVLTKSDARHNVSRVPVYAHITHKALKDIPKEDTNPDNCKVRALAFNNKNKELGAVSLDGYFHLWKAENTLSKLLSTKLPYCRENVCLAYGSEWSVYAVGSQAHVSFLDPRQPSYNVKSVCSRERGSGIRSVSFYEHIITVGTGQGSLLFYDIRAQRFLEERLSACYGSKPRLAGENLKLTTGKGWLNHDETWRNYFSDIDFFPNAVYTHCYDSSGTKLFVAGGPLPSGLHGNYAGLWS
UniProt Q13619: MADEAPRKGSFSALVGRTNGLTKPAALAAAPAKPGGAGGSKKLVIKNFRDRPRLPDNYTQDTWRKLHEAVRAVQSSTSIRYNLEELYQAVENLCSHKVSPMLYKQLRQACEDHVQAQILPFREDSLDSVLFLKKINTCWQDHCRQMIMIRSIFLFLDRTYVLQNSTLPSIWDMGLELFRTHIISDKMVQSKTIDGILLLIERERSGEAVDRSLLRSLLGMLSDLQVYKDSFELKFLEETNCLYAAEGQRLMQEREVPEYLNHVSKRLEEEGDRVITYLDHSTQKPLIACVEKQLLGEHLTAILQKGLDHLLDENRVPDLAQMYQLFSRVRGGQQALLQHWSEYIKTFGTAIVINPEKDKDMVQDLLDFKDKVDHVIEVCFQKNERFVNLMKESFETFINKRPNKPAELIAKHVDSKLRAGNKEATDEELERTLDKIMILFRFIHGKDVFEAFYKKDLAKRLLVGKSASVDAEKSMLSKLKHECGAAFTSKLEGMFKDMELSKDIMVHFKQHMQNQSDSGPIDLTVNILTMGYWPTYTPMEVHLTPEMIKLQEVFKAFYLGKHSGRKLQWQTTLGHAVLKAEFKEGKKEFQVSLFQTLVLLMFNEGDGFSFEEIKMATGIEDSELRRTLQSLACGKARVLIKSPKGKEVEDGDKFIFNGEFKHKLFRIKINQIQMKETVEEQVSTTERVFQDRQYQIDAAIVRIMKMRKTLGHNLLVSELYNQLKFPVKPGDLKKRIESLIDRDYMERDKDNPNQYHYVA
UniProt Q16531: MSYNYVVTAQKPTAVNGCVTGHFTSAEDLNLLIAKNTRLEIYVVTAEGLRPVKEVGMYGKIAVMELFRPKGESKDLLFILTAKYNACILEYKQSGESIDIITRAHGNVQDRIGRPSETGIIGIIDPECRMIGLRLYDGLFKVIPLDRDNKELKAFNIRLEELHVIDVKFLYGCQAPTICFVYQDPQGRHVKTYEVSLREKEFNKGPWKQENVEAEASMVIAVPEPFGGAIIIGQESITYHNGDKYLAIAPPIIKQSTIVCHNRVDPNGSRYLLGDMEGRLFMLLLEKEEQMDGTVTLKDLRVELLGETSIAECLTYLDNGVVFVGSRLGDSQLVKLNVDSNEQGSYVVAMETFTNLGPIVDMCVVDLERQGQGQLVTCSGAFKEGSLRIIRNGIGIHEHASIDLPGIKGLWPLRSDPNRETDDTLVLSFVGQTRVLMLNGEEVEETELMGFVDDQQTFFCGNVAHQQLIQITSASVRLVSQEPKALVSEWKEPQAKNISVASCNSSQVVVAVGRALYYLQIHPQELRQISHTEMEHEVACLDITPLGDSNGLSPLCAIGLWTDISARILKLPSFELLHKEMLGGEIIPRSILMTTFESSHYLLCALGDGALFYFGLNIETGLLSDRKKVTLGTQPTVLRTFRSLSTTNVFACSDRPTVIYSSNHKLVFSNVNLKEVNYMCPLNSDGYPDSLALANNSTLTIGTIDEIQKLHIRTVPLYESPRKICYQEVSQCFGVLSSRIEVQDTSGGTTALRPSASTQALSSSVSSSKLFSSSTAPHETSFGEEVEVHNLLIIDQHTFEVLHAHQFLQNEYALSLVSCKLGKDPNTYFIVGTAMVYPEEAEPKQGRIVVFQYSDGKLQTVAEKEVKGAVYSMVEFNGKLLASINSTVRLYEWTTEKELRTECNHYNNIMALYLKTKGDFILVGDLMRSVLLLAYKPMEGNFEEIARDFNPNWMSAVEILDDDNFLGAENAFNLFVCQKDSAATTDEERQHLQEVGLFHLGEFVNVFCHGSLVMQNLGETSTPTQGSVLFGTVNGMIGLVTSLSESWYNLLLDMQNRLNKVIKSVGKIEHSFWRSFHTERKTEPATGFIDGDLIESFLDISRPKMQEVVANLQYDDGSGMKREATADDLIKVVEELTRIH

What was measured:
[1] = molecular target: T1, HA-tagged MOV10 (E1002X) (human) (UniProt Q9HCE1); assay: co-IP; HEK293T co-transfected with StrepII-FLAG-tagged DCAF12 and HA-tagged MOV10 (WT) or (E1002X); MLN4924 for the last 6 h; anti-HA IP of whole-cell lysates, immunoblot
T1 sequence: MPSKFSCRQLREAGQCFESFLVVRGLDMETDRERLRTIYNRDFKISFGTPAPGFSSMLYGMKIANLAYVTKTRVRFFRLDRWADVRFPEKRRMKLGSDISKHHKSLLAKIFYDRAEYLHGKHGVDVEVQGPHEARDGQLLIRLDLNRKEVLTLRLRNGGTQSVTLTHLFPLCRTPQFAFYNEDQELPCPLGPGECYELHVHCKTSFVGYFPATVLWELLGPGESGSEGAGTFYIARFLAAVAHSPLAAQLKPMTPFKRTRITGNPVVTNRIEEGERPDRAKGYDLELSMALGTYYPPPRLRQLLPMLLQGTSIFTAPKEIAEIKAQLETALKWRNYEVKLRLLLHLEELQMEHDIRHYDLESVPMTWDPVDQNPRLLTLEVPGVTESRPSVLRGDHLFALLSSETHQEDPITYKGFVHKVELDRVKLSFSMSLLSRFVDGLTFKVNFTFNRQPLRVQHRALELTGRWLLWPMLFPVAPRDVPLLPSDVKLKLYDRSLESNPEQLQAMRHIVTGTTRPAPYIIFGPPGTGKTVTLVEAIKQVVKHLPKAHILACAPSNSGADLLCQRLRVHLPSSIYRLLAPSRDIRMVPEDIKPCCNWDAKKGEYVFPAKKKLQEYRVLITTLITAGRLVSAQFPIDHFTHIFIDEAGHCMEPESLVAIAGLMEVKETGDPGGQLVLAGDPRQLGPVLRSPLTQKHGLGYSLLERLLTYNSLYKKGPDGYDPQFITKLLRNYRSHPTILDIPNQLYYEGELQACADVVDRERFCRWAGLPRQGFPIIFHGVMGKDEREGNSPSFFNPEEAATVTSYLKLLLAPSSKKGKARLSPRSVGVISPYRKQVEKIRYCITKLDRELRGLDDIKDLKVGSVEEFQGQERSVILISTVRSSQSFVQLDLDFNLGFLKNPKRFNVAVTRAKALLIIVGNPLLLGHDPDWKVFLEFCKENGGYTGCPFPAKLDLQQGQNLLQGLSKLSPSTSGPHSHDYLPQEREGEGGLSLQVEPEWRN

[2] = molecular target: T2, HA-tagged MOV10 (WT) (human) (UniProt Q9HCE1); assay: as above
T2 sequence: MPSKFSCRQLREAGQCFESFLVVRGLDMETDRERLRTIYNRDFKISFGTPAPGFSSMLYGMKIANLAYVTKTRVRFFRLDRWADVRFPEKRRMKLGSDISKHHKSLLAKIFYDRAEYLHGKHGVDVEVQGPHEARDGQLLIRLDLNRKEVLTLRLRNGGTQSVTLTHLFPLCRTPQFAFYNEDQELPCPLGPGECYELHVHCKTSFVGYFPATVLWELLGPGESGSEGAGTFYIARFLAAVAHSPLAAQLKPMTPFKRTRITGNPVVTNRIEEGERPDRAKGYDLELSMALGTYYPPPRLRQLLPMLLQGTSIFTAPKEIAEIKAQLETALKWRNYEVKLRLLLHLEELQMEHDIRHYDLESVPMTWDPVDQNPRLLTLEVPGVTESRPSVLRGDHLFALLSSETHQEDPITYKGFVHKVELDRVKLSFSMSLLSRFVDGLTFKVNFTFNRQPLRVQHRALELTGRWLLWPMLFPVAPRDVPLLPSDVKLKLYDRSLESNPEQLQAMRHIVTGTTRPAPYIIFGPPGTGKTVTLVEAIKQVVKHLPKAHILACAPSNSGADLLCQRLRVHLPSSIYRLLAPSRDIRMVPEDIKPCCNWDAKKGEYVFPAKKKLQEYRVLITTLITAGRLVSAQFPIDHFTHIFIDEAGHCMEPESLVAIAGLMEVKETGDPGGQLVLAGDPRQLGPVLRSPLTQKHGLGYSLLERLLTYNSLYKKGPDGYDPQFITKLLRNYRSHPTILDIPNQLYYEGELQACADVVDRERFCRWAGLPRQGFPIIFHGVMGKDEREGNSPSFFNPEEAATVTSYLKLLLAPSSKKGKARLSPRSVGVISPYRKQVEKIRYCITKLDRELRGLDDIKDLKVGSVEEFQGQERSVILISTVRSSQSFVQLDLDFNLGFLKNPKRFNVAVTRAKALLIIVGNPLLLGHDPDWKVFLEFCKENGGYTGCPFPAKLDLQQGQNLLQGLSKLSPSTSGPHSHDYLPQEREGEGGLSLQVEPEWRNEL

[3] = molecular target: StrepII-FLAG-tagged DCAF12 (WT) (human) (UniProt Q5T6F0); assay: pull-down; StrepII-FLAG-tagged substrate receptors transfected into HEK293T, MLN4924 for 6 h before harvesting; whole-cell lysates subjected to affinity purification with Strep-TactinXT resin; eluates immunoblotted for endogenous proteins
[4] = molecular target: StrepII-FLAG-tagged DCAF12 (WT) (human) (UniProt Q5T6F0); assay: pull-down; HEK293 cells with doxycycline-inducible HA-tagged MOV10 (WT) or (E1002X) transfected with StrepII-FLAG-tagged DCAF12 (WT) or (∆1–38); DOX 100 ng/mL 24 h, MLN4924 for the last 6 h; affinity purification of whole-cell lysates, immunoblot
[5] = molecular target: StrepII-FLAG-tagged DCAF12 (∆1–38) (human) (UniProt Q5T6F0); assay: as above

binding [1]: no binding
binding [2]: binds
Molecule: endogenous CUL4A (from UniProt Q13619 1-759)

binding [1]: no binding
binding [2]: binds
Molecule: endogenous DDB1 (DNA damage-binding protein 1) (from UniProt Q16531 1-1140)

binding [1]: no binding
binding [2]: binds
Molecule: StrepII-FLAG-tagged DCAF12 (WT) (from UniProt Q5T6F0 1-453)

binding [3]: binds
B1: endogenous GART (glycinamide ribonucleotide transformylase) (protein, UniProt P22102 1-1010)
chain: MAARVLIIGSGGREHTLAWKLAQSHHVKQVLVAPGNAGTACSEKISNTAISISDHTALAQFCKEKKIEFVVVGPEAPLAAGIVGNLRSAGVQCFGPTAEAAQLESSKRFAKEFMDRHGIPTAQWKAFTKPEEACSFILSADFPALVVKASGLAAGKGVIVAKSKEEACKAVQEIMQEKAFGAAGETIVIEELLDGEEVSCLCFTDGKTVAPMPPAQDHKRLLEGDGGPNTGGMGAYCPAPQVSNDLLLKIKDTVLQRTVDGMQQEGTPYTGILYAGIMLTKNGPKVLEFNCRFGDPECQVILPLLKSDLYEVIQSTLDGLLCTSLPVWLENHTALTVVMASKGYPGDYTKGVEITGFPEAQALGLEVFHAGTALKNGKVVTHGGRVLAVTAIRENLISALEEAKKGLAAIKFEGAIYRKDVGFRAIAFLQQPRSLTYKESGVDIAAGNMLVKKIQPLAKATSRSGCKVDLGGFAGLFDLKAAGFKDPLLASGTDGVGTKLKIAQLCNKHDTIGQDLVAMCVNDILAQGAEPLFFLDYFSCGKLDLSVTEAVVAGIAKACGKAGCALLGGETAEMPDMYPPGEYDLAGFAVGAMERDQKLPHLERITEGDVVVGIASSGLHSNGFSLVRKIVAKSSLQYSSPAPDGCGDQTLGDLLLTPTRIYSHSLLPVLRSGHVKAFAHITGGGLLENIPRVLPEKLGVDLDAQTWRIPRVFSWLQQEGHLSEEEMARTFNCGVGAVLVVSKEQTEQILRDIQQHKEEAWVIGSVVARAEGSPRVKVKNLIESMQINGSVLKNGSLTNHFSFEKKKARVAVLISGTGSNLQALIDSTREPNSSAQIDIVISNKAAVAGLDKAERAGIPTRVINHKLYKNRVEFDSAIDLVLEEFSIDIVCLAGFMRILSGPFVQKWNGKMLNIHPSLLPSFKGSNAHEQALETGVTVTGCTVHFVAEDVDAGQIILQEAVPVKRGDTVATLSERVKLAEHKIFPAALQLVASGTVQLGENGKICWVKEE

binding [4]: binds
binding [5]: binds
B2: HA-tagged MOV10 (WT) (protein, UniProt Q9HCE1 1-1003)
chain: T2 sequence

binding [3]: binds
B3: endogenous ADAR (adenosine deaminase acting on RNA) (protein, UniProt P55265 1-1226)
chain: MNPRQGYSLSGYYTHPFQGYEHRQLRYQQPGPGSSPSSFLLKQIEFLKGQLPEAPVIGKQTPSLPPSLPGLRPRFPVLLASSTRGRQVDIRGVPRGVHLRSQGLQRGFQHPSPRGRSLPQRGVDCLSSHFQELSIYQDQEQRILKFLEELGEGKATTAHDLSGKLGTPKKEINRVLYSLAKKGKLQKEAGTPPLWKIAVSTQAWNQHSGVVRPDGHSQGAPNSDPSLEPEDRNSTSVSEDLLEPFIAVSAQAWNQHSGVVRPDSHSQGSPNSDPGLEPEDSNSTSALEDPLEFLDMAEIKEKICDYLFNVSDSSALNLAKNIGLTKARDINAVLIDMERQGDVYRQGTTPPIWHLTDKKRERMQIKRNTNSVPETAPAAIPETKRNAEFLTCNIPTSNASNNMVTTEKVENGQEPVIKLENRQEARPEPARLKPPVHYNGPSKAGYVDFENGQWATDDIPDDLNSIRAAPGEFRAIMEMPSFYSHGLPRCSPYKKLTECQLKNPISGLLEYAQFASQTCEFNMIEQSGPPHEPRFKFQVVINGREFPPAEAGSKKVAKQDAAMKAMTILLEEAKAKDSGKSEESSHYSTEKESEKTAESQTPTPSATSFFSGKSPVTTLLECMHKLGNSCEFRLLSKEGPAHEPKFQYCVAVGAQTFPSVSAPSKKVAKQMAAEEAMKALHGEATNSMASDNQPEGMISESLDNLESMMPNKVRKIGELVRYLNTNPVGGLLEYARSHGFAAEFKLVDQSGPPHEPKFVYQAKVGGRWFPAVCAHSKKQGKQEAADAALRVLIGENEKAERMGFTEVTPVTGASLRRTMLLLSRSPEAQPKTLPLTGSTFHDQIAMLSHRCFNTLTNSFQPSLLGRKILAAIIMKKDSEDMGVVVSLGTGNRCVKGDSLSLKGETVNDCHAEIISRRGFIRFLYSELMKYNSQTAKDSIFEPAKGGEKLQIKKTVSFHLYISTAPCGDGALFDKSCSDRAMESTESRHYPVFENPKQGKLRTKVENGEGTIPVESSDIVPTWDGIRLGERLRTMSCSDKILRWNVLGLQGALLTHFLQPIYLKSVTLGYLFSQGHLTRAICCRVTRDGSAFEDGLRHPFIVNHPKVGRVSIYDSKRQSGKTKETSVNWCLADGYDLEILDGTRGTVDGPRNELSRVSKKNIFLLFKKLCSFRYRRDLLRLSYGEAKKAARDYETAKNYFKKGLKDMGYGNWISKPQEEKNFYLCPV
